Results from the supplement of paper PMC5895741.

B1: MS2 coat protein; the commonest letter at each place (parent)
chain: MASNFTQFVLVDNGGTGDVTVAPSNFANGVAEWISSNSRSQAYKVTCSVRQSSAQNRKYTIKVEVPKVATQTVGGVELPVAAWRSYLNMELTIPIFATNSDCELIVKAMQGLLKDGNPIPSAIAANSGIY

Variants of: B1
Assay: apparent fitness score (VLP assembly selection enrichment vs plasmid library) (log10 ratio); higher = better expression / assembly into well-formed VLPs
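Note: counts from Illumina MiSeq reads, cDNA of packaged RNA versus plasmid DNA taken before selection, each replicate independent from library construction onward, expression induced with 0.1% arabinose.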

Apparent fitness score (log10) of substitutions, site by site:
Y59: N -1.57, S -1.36, G -1.18, C -1, L -1.24, Q -1.07, M -1.29, D < -4, I -0.617, V -0.826, P -1.31, K < -4, H -1.26, E -1.13, R -0.992, A < -4, F -0.838, T -0.817, W -0.299
A69: T -1.24, L < -4, R -1.48, Q -1.13, Y -1.59, V -1.54, K -0.786, P -1.01, C -1.76, D -0.558, I < -4, N < -4, H -0.706, M < -4, G 0.537, E -0.723, W < -4, F -1.86, S -0.968
K67: V -1.15, R -1.36, L -1.12, F -1.87, Y -1.56, C < -4, Q < -4, H < -4, T -1.17, M -0.739, A -1.46, N -0.442, G -1.57, W -0.762, E < -4, P < -4, D < -4, S < -4, I -0.99
E64: A 0.744, K 0.273, H -1.27, W < -4, I -0.888, Q 0.474, P -0.744, S 0.697, F -1.3, V -0.176, D 0.231, M < -4, L -0.566, N 0.166, R -1.31, C 0.033, Y -1.3, G 0.121, T 0.627
G74: E 0.658, Q 0.274, T 0.623, H 0.281, L 0.34, P -0.701, F 0.278, D 0.82, S 0.687, A 0.418, R 0.329, N 0.541, K 0.23, M 0.263, I -0.104, V 0.931, Y 0.211, C 0.261, W 0.0363
K62: E -0.586, A -0.713, S -0.767, Q -0.37, C 0.0423, V 0.0499, W -0.915, D < -4, I < -4, L -0.918, G -0.747, Y -0.386, P -1.66, R 0.581, T -0.386, F -1.1, N -0.87, H 0.266
V68: W 0.476, Q -0.014, F 0.262, D -0.087, N 0.487, C 0.597, T 0.4, R 0.353, E 0.491, H -0.0413, K 0.615, G 0.339, S 0.398, A 0.52, P 0.581, Y -0.191, L 0.593, I 0.299, M 1.8e-05
K58: Q -0.589, R 0.0614, F -2.18, P -0.985, S -0.43, N -0.319, L -0.219, D < -4, V -1.16, I < -4, H -1.16, E < -4, C -0.26, Y < -4, W < -4, G -1.38, M 0.367, T -0.44
I61: W < -4, H < -4, P -0.859, T < -4, S -0.943, K -1.81, G -1.35, Y -0.837, R -1.66, N < -4, C -0.604, L -0.846, F -0.916, Q < -4, A -1.17, V 0.457, E -1.11, D < -4
V73: P -0.132, H 0.222, D 0.00441, S 0.467, M 0.636, F 0.433, R 0.408, G -0.0891, W 0.602, Y 0.343, C 0.623, T 0.5, A 0.461, N 0.19, I 0.495, E -0.0769, Q 0.504, K 0.644, L 0.494
T70: W 0.0576, K 0.249, M < -4, Y -0.786, G -0.138, D 0.0742, A -0.08, N 0.642, E -0.0121, P -0.828, C -0.576, Q 0.77, I 0.575, S 0.356, L -0.626, H -0.859, V 0.379, F -0.652, R -0.00338
G75: F -0.869, C 0.167, P -0.439, D -1.13, M -0.756, I -0.862, A -0.395, H -0.739, L -0.855, Q -0.236, E -0.571, T -0.93, R -0.422, N -1.81, K -0.608, S -0.876
P66: W < -4, M < -4, E -0.927, L -0.819, F < -4, S -0.54, Q -0.831, I -0.773, K -1.64, H -1.46, D -1.01, G -1.62, Y < -4, C -0.558, V -1.2, R -1.41, N < -4, T < -4, A -1.34
V65: P -1.04, G -1.41, K < -4, I 0.227, R -0.634, F -0.301, C 0.434, Q -0.388, A -0.862, T -1.7, N -0.805, L -0.6, E -0.887, S -1.06, M -0.0223, D -1.17, Y -0.429, H < -4, W < -4
Q71: L -0.518, E -0.585, G 0.0155, A 0.34, R 0.394, N -0.272, S 0.531, D -0.62, M -0.0156, H -0.786, K 0.381, C -1.12, V -0.859, Y 0.223, P -0.748, T -0.962, W 0.0247, I -1.25, F -0.0785
V63: Y -1.96, P -1.68, T 0.112, F 0.198, A 0.353, G 0.0524, K 0.178, Q 0.223, R -1.04, I 0.599, N -0.907, D -1.04, W < -4, L 0.637, C 0.185, M 0.902, H < -4, E -1.46, S 0.481
T60: F 0.467, V 0.587, P -1.01, E 0.476, G -1.14, Q 0.492, L 0.632, H 0.214, K 0.78, R 0.767, I 1.09, A 0.391, M 0.551, C 0.789, Y 0.512, S 0.366, W 0.77
T72: Y 0.578, I 0.514, R 0.0912, K 0.667, E -0.645, M 0.281, D -0.368, C 0.608, P -0.689, W 0.00727, L 0.338, A 0.511, H 0.397, Q 0.359, S 0.627, V 0.835, F 0.427, N 0.454, G -0.25
